Here are results for 44 compounds from PMC4336329 (PLoS ONE, 2015).

Molecules are shown by their SMILES. Out of some 310,000 compounds screened, about 2,200 (0.71%) showed an effect of 50% or more. Effects have a minus sign here. This is one part of the list.

This test deals with human ether-à-go-go-related gene (hERG) potassium channel (human, UniProt Q12809). The test is described as follows: primary screen, population patch clamp on CHO cells stably expressing hERG.
human ether-à-go-go-related gene (hERG) potassium channel, sequence (Q12809 whole entry, looked up): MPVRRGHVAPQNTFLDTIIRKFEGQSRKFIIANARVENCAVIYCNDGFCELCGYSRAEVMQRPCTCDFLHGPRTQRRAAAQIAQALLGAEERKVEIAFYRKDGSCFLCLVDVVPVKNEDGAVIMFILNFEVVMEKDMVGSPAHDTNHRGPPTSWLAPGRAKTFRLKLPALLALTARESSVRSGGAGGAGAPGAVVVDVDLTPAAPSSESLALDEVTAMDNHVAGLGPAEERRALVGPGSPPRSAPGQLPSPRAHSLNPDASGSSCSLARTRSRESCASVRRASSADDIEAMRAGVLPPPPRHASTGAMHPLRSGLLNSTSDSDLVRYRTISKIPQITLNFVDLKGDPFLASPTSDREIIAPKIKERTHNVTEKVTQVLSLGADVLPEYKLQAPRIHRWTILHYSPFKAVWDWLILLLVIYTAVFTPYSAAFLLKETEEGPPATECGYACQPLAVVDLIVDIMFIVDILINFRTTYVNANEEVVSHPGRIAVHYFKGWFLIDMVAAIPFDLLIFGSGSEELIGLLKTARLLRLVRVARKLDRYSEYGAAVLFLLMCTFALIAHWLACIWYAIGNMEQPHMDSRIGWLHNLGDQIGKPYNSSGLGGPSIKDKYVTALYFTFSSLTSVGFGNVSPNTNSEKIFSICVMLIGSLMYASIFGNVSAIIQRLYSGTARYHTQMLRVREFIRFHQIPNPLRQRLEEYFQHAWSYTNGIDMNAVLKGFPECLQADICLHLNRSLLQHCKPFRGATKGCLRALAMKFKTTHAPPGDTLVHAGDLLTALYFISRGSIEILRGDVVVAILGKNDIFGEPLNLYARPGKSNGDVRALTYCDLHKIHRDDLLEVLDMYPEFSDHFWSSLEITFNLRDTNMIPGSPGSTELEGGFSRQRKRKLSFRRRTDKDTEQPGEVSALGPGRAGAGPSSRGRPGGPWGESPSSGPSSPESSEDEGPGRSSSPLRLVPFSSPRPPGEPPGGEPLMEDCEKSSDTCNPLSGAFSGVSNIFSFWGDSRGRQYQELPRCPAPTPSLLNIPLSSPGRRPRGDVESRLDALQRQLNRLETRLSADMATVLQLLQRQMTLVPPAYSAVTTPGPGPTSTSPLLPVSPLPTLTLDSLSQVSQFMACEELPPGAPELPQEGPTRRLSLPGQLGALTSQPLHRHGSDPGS
On to `CCN(CC(=O)NC1CCS(=O)(=O)C1)c1ccc(S(C)(=O)=O)cc1[N+](=O)[O-]` (centres unmarked), for which the “hERG current change (%, negative = inhibition) at 1uM” value is -2.39%.
Consider `C[C@H](NC(=O)c1[nH]cnc1C(=O)Nc1ccccc1)C(=O)OC(C)(C)C`, for which the “hERG current change (%, negative = inhibition) at 1uM” value was 12.6%.
For `COC(=O)c1c(NC(=O)C2C3CCC(C3)C2C(=O)O)sc2c1CCCCC2` (centres unmarked), the “hERG current change (%, negative = inhibition) at 1uM” value worked out at 13%.
For the compound `O=C(NNc1nc2c(F)cc(F)cc2s1)c1ccccc1`, the “hERG current change (%, negative = inhibition) at 1uM” value was 11.4%.
Take `Cc1ccccc1OCCSc1nc2ncnc(N)c2[nH]1`: the “hERG current change (%, negative = inhibition) at 1uM” value stood at 13.7%.
Regarding `COc1cccc2sc(Nc3nnc(-c4cccs4)o3)nc12`, the “hERG current change (%, negative = inhibition) at 1uM” value is reported as 16.7%.
The figure for `CCC(C(=O)NCCCN1CCCCCC1)n1nc(C)c2sc3ccccc3c2c1=O` (centres unmarked) is 17.7%; for `O=C(NCC1CCCO1)c1cc(S(=O)(=O)N2CCCC2)c(Cl)cc1Cl` (centres unmarked) it is 18.4%.
The figure for `COc1cccc(C(=O)NNC(=O)c2cccc(F)c2)c1` is 12.7%; for `CC[n+]1c(/C=C/N(C)c2ccccc2)oc2ccccc21.O=S(=O)([O-])CCO` it is 12%.
The figure for `CC(C)CCn1cnc2c1c(=O)n(C)c(=O)n2C` is -3.28%.
Turning to `Cc1cccc(-n2ccnc2SCC(=O)Nc2cc(C)on2)c1`, the “hERG current change (%, negative = inhibition) at 1uM” value is listed as 4.85%.
For the compound `CN1CCN(C2=CC(=O)OC23CCCCC3)CC1`, the “hERG current change (%, negative = inhibition) at 1uM” value came to 15.6%.
The result for `O=c1c2cnn(-c3ccc(F)cc3)c2ncn1Cc1ccc(F)cc1` reads 2.93%; that for `O=C1CC(c2cc3c(cc2Br)OCO3)C2=C(CCCC2=O)N1` (centres unmarked), 6.16%.
`NC(=O)C1CCN(C(=O)CC2(CC(=O)O)CCCCC2)CC1`: the “hERG current change (%, negative = inhibition) at 1uM” value is given as 16.1%.
As to `CC1Cc2ccccc2N1C(=O)CSCC(=O)O` (centres unmarked), the “hERG current change (%, negative = inhibition) at 1uM” value was determined as 11.4%.
The figure for `Cc1nnc(Nc2ccc3c(c2)ncn3C)c2ccccc12` is 8.25%; for `COc1cc(/C=C2/C(=O)NN(c3cccc(Cl)c3)C2=O)cc(Br)c1O` it is 14.4%.
Regarding `COc1ccccc1CNC(=O)[C@H](C)NC(=O)C1CCN(C(=O)[C@@H](N)Cc2ccccc2)CC1`, the “hERG current change (%, negative = inhibition) at 1uM” value was -0.366%.
The figure for `COc1cc(OC)c(C2=Nc3ccc(Br)cc3C(c3ccccc3)N2CC(=O)NN)cc1OC` (centres unmarked) is 2.52%.
The result for `CC(C(=O)NC1CCCC1)N(c1ccc(Oc2ccccc2)cc1)S(C)(=O)=O` (centres unmarked) reads -7.27%.
The result for `CCCCNC(=S)NNc1c(Cl)cc(Cl)cc1Cl` reads 5.98%; that for `CN(N=Nc1cccc([N+](=O)[O-])c1)c1ccccc1`, -4.89%.
`COc1cccc(N=C(N)N=C(N)N)c1`: the “hERG current change (%, negative = inhibition) at 1uM” value is listed as 15.9%.
The figure for `CC(C)(C)OC(=O)NOCC(=O)N(CC(=O)c1ccccc1)Cc1ccccc1` is 13%; for `O=C(Nc1ccccc1)Oc1cccc(Br)c1` it is 11%; for `N#C/C(=C\Nc1ccccn1)S(=O)(=O)c1ccc(Cl)cc1` it is 14.4%.
For `Cc1ccc(OCCNC(=O)C2CC(=O)N(Cc3ccccc3)C2)cc1` (centres unmarked), the “hERG current change (%, negative = inhibition) at 1uM” value is reported as -0.366%.
`Cc1ccc2c(cnn2C(=O)CCC(=O)NCc2ccccc2Cl)c1`: the “hERG current change (%, negative = inhibition) at 1uM” value is recorded as 13.9%.
The figure for `Cc1ccc(C)c(N2CCN(C(=O)CCCn3c(=S)[nH]c4cc5c(cc4c3=O)OCO5)CC2)c1` is 3.35%.
On to `CCCCNC(=O)COCc1cc(-c2ccc3c(c2)OCO3)on1`, for which the “hERG current change (%, negative = inhibition) at 1uM” value was 8.1%.
The figure for `CS(=O)(=O)NCCSCc1c(Cl)cccc1Cl` is 6.38%; for `Cc1ccc2c(c1)N(C(=O)CCC(=O)O)CCO2` it is 5.28%.
The figure for `CC1CCCN(Cc2nc3c(c(=O)n(C)c(=O)n3C)n2CC(=O)c2ccccc2)C1` (centres unmarked) is 4.21%; for `CCCCCC(C)n1[nH]c(=O)cc1N` (centres unmarked) it is 10.1%; for `Cc1ccc(-n2nc(C)c3c(C)c(CCC(=O)O)c(C)nc32)cc1C` it is 17.5%.
The figure for `O=C(NC(n1ccc(=O)[nH]c1=O)C(Cl)(Cl)Cl)C12CC3CC(CC(C3)C1)C2` (centres unmarked) is -0.0313%; for `CCc1cccc(NC(=O)C2CC2c2ccccc2)c1` (centres unmarked) it is 13.8%; for `O=S(=O)(NCc1cccnc1)c1cccs1` it is 11.1%.
Turning to `CC(C)c1cc(=O)n2[nH]c(SCc3ccccc3)nc2n1`, the “hERG current change (%, negative = inhibition) at 1uM” value is given as 13.8%.
Take `CC(=O)c1cn(-c2ccc(Cl)cc2)c(=O)n(Cc2ccc(Br)cc2)c1=O`: the “hERG current change (%, negative = inhibition) at 1uM” value came to 10.9%.
The figure for `Cc1ccc(C)c(N2CCN(C(=O)Nc3ccc4c(c3)N(C)C(=O)CS4)CC2)c1` is -4.26%; for `CCOC(=O)CC(NS(=O)(=O)c1ccc2[nH]cc(C(=O)O)c(=O)c2c1)c1ccc(OCC)c(OC)c1` (centres unmarked) it is 2.74%.
